PubChem BioAssay AID652104 (National Center for Advancing Translational Sciences (NCATS), 2013)
Hit rate of the full screen: of about 410,000 compounds, about 7,200 (1.8%) were called active. This list was built around the results that the source calls inconclusive (neither active nor inactive); the mix of calls is not that of the screen. The call rests on the fitted dose curve; in most records, active means well fitted activation curve with a large enough effect; inconclusive means small, poorly fitted or top-dose-only effect, or another doubt; inactive means no such curve, though single readings can be large or run the other way. Potencies of inconclusive entries are left out as doubtful fits.

experiment: qHTS of TDP-43 Inhibitors; conditions: TDP-43 expressing yeast growth rescue, BacTiter-Glo, 24 h; growth rescue (activation): at 46.1 µM (top of the series) unless noted; further: nearly all actives have a fitted effect of over 50% in size; on growth rescue (activation): % of control where 0% means no effect
How it was run: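 Readout is BacTiter-Glo luminescence of cell growth, so inhibitors register as activators. TDP-43-expressing yeast at OD600=0.02 in galactose medium, after raffinose pregrowth to mid-log, were incubated with compound for 24 hr at 30 deg C.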
Potency means the concentration at half of the fitted maximal effect; tags describe the fitted curve by direction and shape.

Structure (SMILES)	growth rescue (activation)	Potency
CN(C(=O)c1ccc(NC(=O)Cc2ccc(NC(=O)C3CCCN(C(=O)C4CCC4)C3)cc2)cc1)C1CCCC1 (configuration not stated)	inactive: 15.5%	–
COc1ccc(NC(=O)CN(C)S(=O)(=O)c2ccc3c(c2)OCCO3)c2ncccc12	–	inconclusive [activator, partial curve, poor fit]
CCn1cc(C(=O)NCc2ccc(C)cc2)c(=O)c2cc(S(=O)(=O)N(C)C)ccc21	–	inconclusive [activator, single point]
Cc1ccccc1-c1nc(-c2cccnc2)no1	–	active: 14.1 µM
CCc1ccc(-n2c(=O)c3cccnc3n2CC(=O)Nc2cc(F)ccc2F)cc1	inactive: 0%	–
CSc1ccccc1NC(=O)COc1nsnc1N1CCOCC1	–	inconclusive [activator, single point]
Cc1ccc(O)c(-c2cc(C(F)(F)C(F)F)[nH]n2)c1	–	inconclusive [activator, single point]
CC(C)CC(=O)N1CCN(c2ccc([N+](=O)[O-])cc2Cl)CC1	–	active: 12.6 µM
CCOC(=O)c1ccccc1NC(=O)CSc1ccc(-c2cccnc2)nn1	–	inconclusive [activator, partial curve]
O=C1/C(=C/c2cccnc2)CCc2c1[nH]c1ccccc21	–	inconclusive [activator, partial curve]
CCOc1ccccc1NC(=O)CSc1ccc(-c2sc(C)nc2C)nn1	–	inconclusive [activator, single point]
COc1cccc(C(=O)Nc2ccc(Cl)c(C(F)(F)F)c2)c1	–	inconclusive [activator, partial curve]
CCNC(=O)COC(=O)/C=C/c1cccc([N+](=O)[O-])c1	inactive: 3.59%	–
Cc1ccc(NS(=O)(=O)c2ccc3c(c2)CCCN3C(=O)C2CCC2)c(C)c1	–	inconclusive [activator, partial curve]
O=C(Cc1ccc([N+](=O)[O-])cc1)N1CCCc2ccccc21	–	inconclusive [activator, partial curve]
COC(=O)c1nnn(-c2cccc(C)c2)c1C(=O)OC	inactive: -3.68%	–
Cc1ccc(NC(=O)C2CCC(CNS(=O)(=O)c3csc(C(N)=O)c3)CC2)cc1Cl (configuration not stated)	inactive: -1.51%	–
Oc1ccc(F)cc1-c1cc(-c2ccc3c(c2)OCCO3)n[nH]1	–	inconclusive [activator, full curve]
O=C1/C(=C/C=C/c2ccco2)SC(=S)N1c1ccc(O)cc1	–	active: 11.2 µM
O=C(Nc1ccccc1C(=O)N1CCOCC1)C1CC(=O)N(C2CCCC2)C1 (configuration not stated)	inactive: -17.3%	–
COCOCCn1cc(CN2CCS(=O)(=O)N(Cc3ccc(-c4ccccc4)cc3)C(C(C)C)C2=O)nn1 (configuration not stated)	–	inconclusive [activator, partial curve]
Cc1cc(Cl)ccc1NC(=O)CN(c1ccccc1Br)S(C)(=O)=O	–	inconclusive [activator, partial curve]
CCc1ccc(C(=O)N2CCC(c3nc4ccccc4s3)CC2)cc1	–	inconclusive [activator, single point]
Cc1cc(NC(=O)CCC(=O)N(Cc2ccco2)C2(C(=O)NC3CCCC3)CCCCC2)no1	–	inconclusive [activator, single point]

Structure (SMILES)	growth rescue (activation)	Potency
COc1ccccc1OCC(=O)Nc1ccc(N2CCCCC2)cc1	inactive: 16.1%	–
C(=C\c1ccco1)/C1=NN(c2ccccc2)C(c2ccco2)C1 (configuration not stated)	inactive: -14.2%	–
CCc1ccc2oc(-c3cccc(N)c3)nc2c1	–	inconclusive [activator, full curve, poor fit]
OCCc1ccc(-c2ccc(Cl)cc2)o1	–	inconclusive [activator, partial curve]
Cc1ccc(Cl)cc1N1CCN(S(=O)(=O)c2ccc3c(c2)CCCN3C(=O)C2CCC2)CC1	inactive: 0.0665%	–
CCCCCn1c(-c2ccc(OC)c(OC)c2)nc2ccccc21	inactive: 20.8%	–
Cn1ccsc1=NC(=O)c1ccc(Cl)cc1	–	active: 11.2 µM
Clc1ccccc1-c1cnc2sc(NCc3ccc4c(c3)OCO4)nn12	–	active: 3.98 µM
CC(NCc1ccccc1)C1COc2ccccc2O1 (configuration not stated)	inactive: 14.9%	–
Cc1ccccc1S(=O)(=O)Nc1nc2ccccc2nc1N1CCOCC1	–	active: 17.8 µM
CCn1cc(S(=O)(=O)c2cccc(Cl)c2)c(=O)c2cc(F)c(N3CCN(c4ccccc4)CC3)cc21	–	inconclusive [activator, full curve, poor fit]
CC(=O)c1ccc(NC(=O)CN2CCN(CC(=O)Nc3ccc(C(C)=O)cc3)CC2)cc1	inactive: -5.85%	–
CCc1ccc(-n2c(Cc3ccccc3)nnc2SCc2nc(-c3cccs3)no2)cc1	–	inconclusive [activator, single point]
Cc1nn(-c2ccccc2)c(Cl)c1/C=C/C(=O)c1ccccc1	–	inconclusive [activator, partial curve]
CCOc1ccc(N2C(=O)CS/C2=C(\C(Cl)=C(Cl)Cl)[N+](=O)[O-])cc1	–	inconclusive [activator, single point]
CC1CC(C)CN(C(=O)/C=C/c2ccc([N+](=O)[O-])s2)C1 (configuration not stated)	–	active: 22.4 µM
CCCCN(C)C(=O)c1sc(=O)n(CC(=O)c2ccccc2OC)c1C	–	inconclusive [activator, partial curve]
COc1ccc(C(=O)NCC(c2ccc(N(C)C)cc2)N2CCc3ccccc32)c(OC)c1 (configuration not stated)	inactive: 7.72%	–
S=c1[nH]c(-c2ccccc2)cn1/N=C/c1ccc(Br)cc1	–	inconclusive [activator, partial curve, poor fit]
C[C@]1(C2CCCC2)Cc2cc(OCC(=O)O)c(Cl)c(Cl)c2C1=O	inactive: 8.24%	–
O=C1NC[C@H](Cc2ccccc2)N(C[C@H]2CCCN2C[C@H](Cc2ccc(O)cc2)N2C[C@H](Cc3ccc(O)cc3)N(CC3CCCCCC3)C(=O)C2=O)C1=O	inactive: 20.1%	–
Cc1ccc(-n2nnnc2-c2cccc(C)c2)cc1	–	active: 20 µM
O=C(O)c1cccc2c1Cc1cc(Cl)ccc1-2	–	inconclusive [activator, single point]
COc1ccc(CCCC(=O)NCc2ccccc2)cc1C	–	active: 17.8 µM

Structure (SMILES)	growth rescue (activation)	Potency
CSc1ncnc2c1ncn2CCCNCCc1ccccn1	–	inconclusive [activator, partial curve]
C=CCNc1nc2ccccc2nc1NS(=O)(=O)c1ccc(F)cc1	–	inconclusive [activator, partial curve, poor fit]
COC(=O)c1ccc(OCC2c3cc(OC)c(OC)cc3CCN2C(=O)c2ccc(F)cc2)cc1 (configuration not stated)	–	active: 35.5 µM
COc1ccc2nc(C)cc(N/N=C/c3cccc(OC)c3O)c2c1	–	inconclusive [activator, single point]
CCn1nc(NC(=O)C(C)C)c2cc3ccc(C)cc3nc21	–	inconclusive [activator, partial curve]
CC(NC(=O)c1ccccc1[N+](=O)[O-])C1CC2CCC1C2 (configuration not stated)	–	inconclusive [activator, single point]
CCOCCc1nn2c(=O)cc(COC(=O)C3CCCCC3)nc2s1	inactive: 22.2%	–
O=C1CC(c2ccccc2)n2ncnc2N1 (configuration not stated)	–	inconclusive [activator, single point]
CCn1cc(C(=O)OCC(=O)Nc2cccc(C(C)=O)c2)c(=O)c2ccc(C)nc21	inactive: 0.744%	–
CC(=O)c1ccc(OCCCC(=O)N2CCN(S(=O)(=O)c3cc(C)ccc3C)CC2)cc1	–	inconclusive [activator, partial curve]
COc1ccc(Cn2c(=O)c3oc4ccccc4c3n(Cc3ccc(Cl)cc3)c2=O)cc1	inactive: -5.04%	–
CC(Oc1ccc(Cl)cc1)C(=O)N1CCCc2ccccc21 (configuration not stated)	–	inconclusive [activator, single point]
O=C1/C(=C/c2ccccc2[N+](=O)[O-])COc2ccccc21	–	inconclusive [activator, single point]
COCCCNc1oc(-c2ccc(COc3ccc(Cl)cc3)o2)nc1C#N	–	inconclusive [activator, partial curve]
c1ccc(-c2n[nH]c3c2CCC3)cc1	–	inconclusive [activator, partial curve]
CC#Cc1cc2c(cc1O)CCC1C2CCC2(C)C(O)CCC12 (configuration not stated)	–	inconclusive [activator, single point]
CCCCCc1nnc(NC(=O)C2=COCCO2)s1	–	inconclusive [activator, single point]
O=[N+]([O-])c1cccc2c(S(=O)(=O)N3CCOCC3)cccc12	–	inconclusive [activator, single point]
CCOC(=O)c1c(-c2ccc(C)cc2)csc1NC(=O)C1CCCO1 (configuration not stated)	–	inconclusive [activator, single point]
Cc1ccc2sc(NC(=O)c3ccc4c(c3)OCCO4)nc2c1C	–	inconclusive [activator, partial curve]
C=CCOc1nc2c(c(=O)n(C)c(=O)n2C)n1Cc1ccc(Cl)cc1	–	inconclusive [activator, partial curve]
O=S(=O)(Nc1ccc2c(c1)OCCO2)c1cccc(F)c1	inactive: 22.6%	–
O=C(Cc1ccccc1)Nc1nc(-c2cccs2)cs1	–	inconclusive [activator, partial curve]
O=S(=O)(c1ccccc1)N(CC(O)COc1ccccc1)c1ccccc1 (configuration not stated)	–	inconclusive [activator, single point]
